In the supplement of paper PMC8183993:
Where a name gives a salt, the structure may show the parent alone. ± gives the standard deviation of the averaged measurements. The full ranking holds about 3,200 compounds; the median of “nuclei count (viability) relative to DMSO” is about 99, and the lowest 2% start at about 16. Some of the results follow.

system: U2OS; assay: nuclei count (viability) relative to DMSO (% of DMSO); higher = more viable cells; conditions: 10 µM; 24 h
Description: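 Primary image-based screen in U2OS cells: compounds at 10 uM for 24 h, then a 1 h o-propargyl-puromycin (OPP) pulse, click labelling, and high-throughput microscopy. Mean cytoplasmic OPP intensity and nuclei count were normalised to DMSO wells within each plate (DMSO = 100) and averaged over triplicate plates.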

In order of falling nuclei count:
1. C=C1CC[C@H](O)C/C1=C/C=C1\CCC[C@]2(C)[C@@H]([C@H](C)/C=C/[C@H](C)C(C)C)CC[C@@H]12 [Vitamin D2 (Ergocalciferol)]  116
2. CCc1cc(Cl)c(OC)c(C(=O)NC[C@@H]2CCCN2CC)c1O [Eticlopride hydrochloride]  113
3. O=C(O)Cn1nnc(-c2cc(N3CCC(Oc4cc(F)ccc4Br)CC3)no2)n1  112
4. Cn1nnc2c(C(N)=O)ncn2c1=O [Methazolastone]  112
5. CCCNC(C)(C)COC(=O)c1ccccc1 [Meprylcaine hydrochloride]  111
6. c1ccc2sc(N3CCN(Cc4ccc5c(c4)OCO5)CC3)nc2c1 [2-[1-(4-Piperonyl)piperazinyl]benzothiazole]  111
7. CN(Cc1cc(Br)cc(Br)c1N)C1CCCCC1 [Bromhexine hydrochloride]  111
8. CC(C)[C@H](O)C(=O)N[C@@H](C)C(=O)N[C@@H]1C(=O)N(C)CCc2ccccc21  110
9. NC1CCN(c2c(F)cc3c(=O)c(C(=O)O)cn(C4CC4)c3c2Cl)C1 (configuration not stated) [Clinafloxacin]  109
10. CCC1(C)CC(=O)NC1=O (configuration not stated) [Ethosuximide]  109
11. CCC(=O)O[C@]1(C(=O)SCF)[C@H](C)C[C@H]2[C@@H]3C[C@H](F)C4=CC(=O)C=C[C@]4(C)[C@@]3(F)[C@@H](O)C[C@@]21C [Fluticasone propionate (Flonase, Veramyst)]  109
12. C[C@]12CC[C@H](O)CC1=CC[C@@H]1[C@@H]2CC[C@]2(C)C(c3cccnc3)=CC[C@@H]12 [Abiraterone (CB-7598)]  109
13. CC(NCCc1ccc(O)cc1)C(O)c1ccc(O)cc1 (configuration not stated) [Ritodrine hydrochloride]  108
14. CCCc1nn(C)c2c(=O)[nH]c(-c3cc(S(=O)(=O)N4CCN(C)CC4)ccc3OCC)nc12 [Sildenafil]  108
15. C[N+](C)(C)C[C@H](O)CC(=O)[O-] [L-carnitine (Levocarnitine)]  108
16. NCCc1ccc(O)c(O)c1 [Dopamine hydrochloride]  108
17. O=[N+]([O-])c1cn2c(n1)OC[C@@H](OCc1ccc(OC(F)(F)F)cc1)C2  107
18. COc1cc(CNC(=O)CCCCCCC(C)C)ccc1O [Dihydrocapsaicin]  106
19. CCCCOc1ccc(C(=O)CCN2CCCCC2)cc1 [Dyclonine hydrochloride]  106
20. CCCCS(=N)(=O)CCC(N)C(=O)O (configuration not stated) [Buthionine sulfoximine]  105
21. Nc1ccc(C(=O)O)c(O)c1 [Sodium 4-Aminosalicylate]  104
22. CC(C)(C)NC(=O)[C@H]1CC[C@H]2[C@@H]3CC[C@H]4NC(=O)C=C[C@]4(C)[C@H]3CC[C@]12C [Finasteride]  103.8 ± 0.73
23. COC(=O)[C@H]1[C@H]2C[C@H]3c4[nH]c5ccccc5c4CCN3C[C@H]2CC[C@@H]1O [Rauwolscine hydrochloride]  104
24. Nc1nc(N)c2nc(-c3cccc(O)c3)c(-c3cccc(O)c3)nc2n1  104
25. Nc1ccc(C(=O)O)c(O)c1 [4-aminosalicylic acid]  103
26. O=C1O[C@H]([C@@H](O)CO)C(O)=C1O [Ascorbic acid]  103 ± 2.5
27. O=C(NCCCCCCNC(=O)ON=C1CCCCC1)ON=C1CCCCC1  103
28. C=CCN1CCc2cc(O)c(O)cc2C(c2ccccc2)C1 (configuration not stated)  103
29. CC(CN(C)C)CN1c2ccccc2CCc2ccccc21 (configuration not stated) [Trimipramine maleate salt]  103
30. O=C(O)c1cc(O)ccc1O [Gentisic acid]  103
31. Clc1ccc(C(c2ccccc2Cl)C(Cl)Cl)cc1 (configuration not stated) [Mitotane]  102
32. Cc1cccc(C)c1OCC(=O)N[C@@H](Cc1ccccc1)[C@@H](O)C[C@H](Cc1ccccc1)NC(=O)[C@H](C(C)C)N1CCCNC1=O [Lopinavir (ABT-378)]  101
33. NS(=O)(=O)c1nn2cc(-c3ccccc3)nc2s1  101
34. CN(C)CCOC(=O)C(c1ccccc1)C1(O)CCCC1 (configuration not stated) [Cyclopentolate hydrochloride]  101
35. CC(C)C(=O)c1c(C(C)C)nn2ccccc12 [Ibudilast]  100.6 ± 0.23
36. c1ccc(-c2nn3c(c2-c2ccnc4cc(OCCN5CCOCC5)ccc24)CCC3)nc1  100
37. CC[N+](C)(CC)CCC[n+]1c(-c2ccccc2)c2cc(N)ccc2c2ccc(N)cc21 [Propidium iodide]  100
38. COc1ccc(CCC(=O)Nc2nc3ccc(Cl)cc3s2)cc1OC  100
39. CC(C)NCC(O)COc1cccc2[nH]ccc12 (configuration not stated) [Pindolol]  100 ± 18
40. C[N+](C)(C)CC(O)CC(=O)[O-] (racemic) [DL-Carnitine HCl]  100
41. OCCN1CCN(CC/C=C2/c3ccccc3Sc3ccc(Cl)cc32)CC1 [Zuclopenthixol dihydrochloride]  99.7
42. C[N+](C)(CCOc1ccccc1)Cc1ccccc1.O=C([O-])c1cc2ccccc2cc1O [Bephenium hydroxynaphthoate]  99.3
43. CCC(=O)O[C@]1(C(=O)SCF)[C@H](C)C[C@H]2[C@@H]3C[C@H](F)C4=CC(=O)C=C[C@]4(C)[C@@]3(F)[C@@H](O)C[C@@]21C [Fluticasone propionate]  99.3 ± 7.9
44. Cn1nnc2c(C(N)=O)ncn2c1=O [Temozolomide]  99.1 ± 4.6
45. COc1ccc(CCC(=O)c2c(O)cc(O[C@@H]3O[C@H](CO)[C@@H](O)[C@H](O)[C@H]3O[C@@H]3O[C@@H](C)[C@H](O)[C@@H](O)[C@H]3O)cc2O)cc1O [Neohesperidin dihydrochalcone (Nhdc)]  98.7
46. CCC(C)(C)C(=O)O[C@H]1C[C@@H](C)C=C2C=C[C@H](C)[C@H](CC[C@@H]3C[C@@H](O)CC(=O)O3)[C@H]21 [Simvastatin]  98.43 ± 0.11
47. Cn1c(N2CCCCS2(=O)=O)nc(C(=O)NCc2ccc(F)cc2)c(O)c1=O  98.4
48. CC(C)(O)CC(=O)NCCn1ccc2ncnc(Nc3ccc(Oc4cccc(C(F)(F)F)c4)c(Cl)c3)c21  98.3 ± 7.3
49. CCC(C)(C)C(=O)O[C@H]1C[C@@H](C)C=C2C=C[C@H](C)[C@H](CC[C@@H]3C[C@@H](O)CC(=O)O3)[C@H]21 [Simvastatin (Zocor)]  98.1
50. OC(CCN1CCCC1)(c1ccccc1)C1CCCCC1 (configuration not stated) [Procyclidine hydrochloride]  98.1
51. C[C@H](Nc1ncnc2nc[nH]c12)c1cc2cccc(Cl)c2c(=O)n1-c1ccccc1  98
52. CCNC1(C(N)=O)CCN(c2ncnc3c2nc(-c2ccccc2Cl)n3-c2ccc(Cl)cc2)CC1  98
53. C=CC[N+]1([C@H]2C[C@H]3[C@@H]4CC[C@H]5C[C@H](O)[C@@H](N6CCOCC6)C[C@]5(C)[C@H]4CC[C@]3(C)[C@H]2OC(C)=O)CCCC1 [Rocuronium bromide]  97.2
54. CCOC(=O)CC(=O)N1CCSC1COc1ccccc1OC (configuration not stated) [Moguisteine]  97.1
55. C[C@@H]1CC[C@@]2(OC1)O[C@H]1C[C@H]3[C@@H]4CC=C5C[C@@H](O)CC[C@]5(C)[C@H]4CC[C@]3(C)[C@H]1[C@@H]2C [Diosgenin]  97
56. N#Cc1ccc(NC(=O)Nc2ccccc2Br)c2n[nH]nc12  96.4
57. Nc1ccc(/N=N/c2ccccc2)c(N)n1 [Phenazopyridine hydrochloride]  95.6
58. O=C(/C=C/c1cccnc1)NCCCCC1CCN(C(=O)c2ccccc2)CC1  94.8
59. C[C@H](Nc1ncnc2nc[nH]c12)c1cc2cccc(Cl)c2c(=O)n1-c1ccccc1 [Duvelisib (IPI-145, INK1197)]  94.6
60. O=C1Nc2ccc(Cl)cc2[C@@](C#CC2CC2)(C(F)(F)F)O1 [Efavirenz]  94.4
61. O=C(O)c1ccccc1Nc1cccc(C(F)(F)F)c1 [Flufenamic acid]  94.4 ± 4.4
62. C[C@H](CS)C(=O)N1CCC[C@H]1C(=O)O [Captopril]  93.9 ± 13
63. N#CC[C@H](C1CCCC1)n1cc(-c2ncnc3[nH]ccc23)cn1  93.5 ± 11
64. Cc1ccc(C(=O)c2cc(/C=C/C(=O)NO)n(C)c2)cc1  92.7
65. COP(=O)(OC)OC(c1ccc(Cl)cc1)P(=O)(OC)OC (configuration not stated)  92.6
66. Nc1nc(N)c2nc(-c3ccccc3)c(N)nc2n1 [Triamterene]  92.1
67. CC(=O)Oc1ccc(C(c2ccc(OC(C)=O)cc2)c2ccccn2)cc1 [Bisacodyl]  91.8
68. O=C(c1ccc(F)cc1)C1CCN(CCn2c(=S)[nH]c3ccccc3c2=O)CC1 [Altanserin hydrochloride]  88
69. Clc1ccc(C(c2ccccc2Cl)C(Cl)Cl)cc1 (configuration not stated) [Mitotane (Lysodren)]  87.9
70. C[C@H](CS)C(=O)N1CCC[C@H]1C(=O)O [Captopril (Capoten)]  85
71. CN(C[C@@H]1COCCO1)S(=O)(=O)Nc1ccc2ccc3ncc(-c4cnn(C)c4)cc3c(=O)c2c1  84.71 ± 0.55
72. CC(C)(C)CC(C)(C)c1ccc(OCCOCC[N+](C)(C)Cc2ccccc2)cc1 [Benzethonium chloride]  84.1
73. COc1ccc(-c2cc3nccn3c(Nc3ncccc3C(N)=O)n2)cc1OC  75.3
74. C=C1C(=O)O[C@H]2[C@H]1CC/C(C)=C/CC[C@@]1(C)O[C@@H]21 [Parthenolide]  72.2 ± 29
75. COc1cc(CCc2cc(NC(=O)c3ccc(N4CC(C)NC(C)C4)cc3)n[nH]2)cc(OC)c1 (configuration not stated)  41.9 ± 6.1
76. Cc1[nH]nc2ccc(-c3cncc(OC[C@@H](N)Cc4ccccc4)c3)cc12  24.3
77. Cc1ccc(C(=O)N(CCCN)[C@@H](c2oc3cc(Cl)ccc3c(=O)c2Cc2ccccc2)C(C)C)cc1  20.5
